# Assay results published in PubChem BioAssay (NCI).
# Values joined by “and” are separate entries in the source; they are usually repeats but may differ in a detail not shown here. Identical values can stand only once.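 48-hour exposure; five concentrations; linearly interpolated endpoints. The concentration for 50% growth inhibition is given as GI50. At the TGI there is no net growth.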 Numbered stars: 1 amine (or outer) side, 2 acyl side, 3 side chain; on linkers, the order of the positions; unused ones are H or OH. Square brackets hold non-standard residues; d marks the D form. Peptide text beside a SMILES is read from it. * marks the point of attachment. X27 = CC(=O)N(C)SCC(N[*:1])C(=O)[*:2]; Fmoc = O=C(OCC1c2ccccc2-c2ccccc21)*; For = O=C*
# Tested on: NCI-H322M lung
# Assay: NCI-60 cell line screen, 48 h
SMILES,TGI,GI50
CCCCCCCCCCCCCCCCCc1nnc(N)o1,> 100 µM,
CCc1c2c(nc3ccc(OCc4ccc(B5OC(C)(C)C(C)(C)O5)cc4)cc13)-c1cc3c(c(=O)n1C2)COC(=O)[C@]3(O)CC,> 25.4 µM,0.101 µM
CCOC(=O)C1Oc2ccc([N+](=O)[O-])cc2C1(C)O (centres undefined),> 100 µM,
Cn1c(=O)sc2cc(C(=S)N3CCN(c4ccccc4)CC3)ccc21,> 100 µM,
COc1ccc(/C=C(\Cl)c2ccc(OC)cc2)cc1,> 100 µM,
COC(=O)C1C(/C=C/c2ccoc2)ON2CCC[C@@H]12 (some centres undefined),> 100 µM,
CN(CCO)/N=N/c1nc[nH]c1C(N)=O,> 100 µM,
Cn1nc(C(=O)N2CC(CCl)c3c2cc([N+](=O)[O-])c2ccccc32)cc1NC(=O)Nc1cc(C(=O)N2CC(CCl)c3c2cc([N+](=O)[O-])c2ccccc32)nn1C (centres undefined),> 100 µM,
Cc1ccc(-c2c3c(N)c4c(nc3nc3c2c(C)nn3-c2ccccc2)CCC4)cc1,11.2 µM,3.35 µM
C=CCC1C2CCC(O[Si](C(C)C)(C(C)C)C(C)C)(C(C(=O)OC)C2)C1O (centres undefined),> 100 µM,
CC(C)=CCc1cc(C2COc3cc4c(c(O)c3C2=O)C=CC(C)(C)O4)c(O)cc1O (centres undefined),30.9 µM,
COC(=O)C1=C(c2ccc(Cl)cc2)C(O)N=C(NN)N1 (centres undefined),> 100 µM,
O=C1NC(c2ccccc2)N=C2Oc3ccccc3C=C12 (centres undefined),> 47 µM,
O=C1NN=CN2C(=O)CCC12 (centres undefined),> 100 µM,
Cc1cc(C(O)CNC(C)CCn2cnc3c2c(=O)n(C)c(=O)n3C)ccc1O (centres undefined),> 100 µM,
O=C(NN1C(=O)CSC12CCC(c1ccccc1)CC2)c1[nH]c2ccc(F)cc2c1-c1ccccc1 (centres undefined),34.7 µM,18.1 µM
CC(=O)O[C@H]1CC[C@@]2(C)C(=C/C(=N\[N+](=O)[O-])[C@H]3C4CCC([C@H](C)CCCC(C)C)[C@@]4(C)CCC32)C1 (some centres undefined),> 100 µM,
O=[N+]([O-])c1cc2c(ccc3occc32)o1,28.2 µM,5 µM
NC(=O)N/N=C(\CCC(=O)N(Cc1ccccc1)Cc1ccccc1)CC(=O)c1ccc(F)cc1,> 100 µM,
CC(=O)C1=NN(c2ccccc2)C2(S1)SC(c1ccccc1)(c1ccccc1)c1ccccc12 (centres undefined),> 100 µM,
C=CC[C@H]1[C@H](O[Si](C)(C)C(C)(C)C)C=CC(=O)[C@@H]1CC(=O)OCC,28.1 µM,
NCCCCCNOCCCN,> 100 µM,
CN(C)C(=O)Oc1ccc(C(=S)Nc2ccccc2)cc1Br,> 100 µM,

SMILES,TGI,GI50
CC(C)(C)N=c1n(C(C)(C)C)oc(=O)n1-c1ccccc1,> 50 µM,
COc1ccc(/C=N\O[Si](C)(C)C(C)(C)C)cc1O[Si](C)(C)C(C)(C)C,30.3 µM,
COc1cc2c3cc1Oc1c(OC)c(OC)cc4c1C(Cc1ccc(cc1)Oc1cc(ccc1O)CC3N(C)CC2)N(C)CC4 (centres undefined),56.4 µM and 27.2 µM,
COc1cc(C2S/C(=C/c3ccccc3)C(=O)N2c2ccccc2Cl)cc(OC)c1OC (centres undefined),66.8 µM,
CCOC(=O)/C=C1\Oc2ccccc2C1(C)O (centres undefined),> 100 µM,
Nc1cc(-c2ccccc2)n(C(=O)Nc2ccc(Oc3ccccc3)cc2)n1,> 100 µM,> 100 µM
Nc1ccc(C2=Nc3ccccc3SC(c3ccccc3O)C2)cc1 (centres undefined),> 100 µM,
CC(=O)C1C(=O)C(=O)N(c2ccc(Br)cc2)C1=O (centres undefined),> 100 µM,
COc1ccc(/C(C#N)=C(/N)SCc2ccccc2Cl)cc1,74 µM,
CC(=O)NC1C(OCc2ccccc2)OC(CO)C(O)C1OCC(=O)N1CCCC1C(=O)NC(CCC(=O)NCCCCCNc1c2ccccc2nc2cccc([N+](=O)[O-])c12)C(N)=O (centres undefined),0.464 µM,
COC(=O)C1=NN2c3ccccc3CN([C@@H](C)c3ccccc3)C(=O)[C@H]2[C@@H]1C,> 100 µM,
CN(CCCN(C)CCC1CCCCC1)CCC1CCCCC1,17.8 µM,6.11 µM
CC1=C(C)C(=O)C(C2=C(C3=CC(=O)C(C)=C(C)C3=O)C(=O)c3ccccc3C2=O)=CC1=O,21.5 µM,
O=C(CC(=O)c1ccccc1)C(=O)NC12CC3CC(CC(C3)C1)C2,> 100 µM,
O=C(CN1C(=O)S/C(=C\C(Cl)=C\c2ccccc2)C1=O)NCCCn1ccnc1,20.1 µM,3.98 µM
C#CC(O)Cc1ccc(OC)c2occc12 (centres undefined),> 100 µM,
CC(=O)N(C)SCC(NC(=O)C(Cc1ccccc1)NC(=O)OCC1c2ccccc2-c2ccccc21)C(=O)NC(Cc1ccccc1)C(=O)NC(Cc1cn(C=O)c2ccccc12)C(=O)NC(CCCCNC(=O)OCC1c2ccccc2-c2ccccc21)C(=O)NC(C(=O)NC(CSN(C)C(C)=O)C(=O)NC(C(N)=O)C(C)O)C(C)O (centres undefined) (Fmoc-F[X27]FW(For)K(Fmoc)T[X27]T-NH2; configuration not given here),> 100 µM,
CCCCCCC(=O)OC[n+]1cccc(-c2c(COC(=O)NC(C)C)c(COC(=O)NC(C)C)c3n2CCC3)c1,> 100 µM,
N#CCN(Cc1ccccc1)[C@@H]1CCC[C@]1(O)C#Cc1ccc2c(c1)OCO2,39 µM,
COC1C(O)C(C)OC(O[C@@H]2C[C@H]3CC[C@@H]4[C@H](CC[C@]5(C)[C@@H](C6=CC(=O)OC6)CC[C@]45O)[C@@]3(C)[C@H](O)C2)C1O (some centres undefined),0.575 µM,
Nc1nc(NCCOCP(=O)(O)O)c(N)c(=O)[nH]1,> 100 µM,
Nc1nc(Cl)nc2c1ncn2[C@@H]1O[C@H](COS(N)(=O)=O)[C@@H](O)[C@H]1O,0.0608 µM and 0.0595 µM,0.0126 µM and 0.0168 µM
O=C1c2c(ccc3c2CCCC3)CC1Cc1ccc2c(c1)CCCC2 (centres undefined),> 100 µM,
